# Experimental data reported in the supplement of paper PMC8728848.
# Some of the results follow.
# Legend:
# Test in all cases: glycan array binding signal (z-score within array); higher = stronger binding
# Details in all cases: glycan notation: IUPAC condensed, linker removed
# [1] = biological target: Fuc(a1-2)[Gal(a1-3)]Gal(b1-4)GlcNAc(b1-2)Man(a1-3)[Fuc(a1-2)[Gal(a1-3)]Gal(b1-4)GlcNAc(b1-2)Man(a1-6)]Man(b1-4)GlcNAc(b1-4)GlcNAc
# In short: (§1)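 Glycan array binding is given as a within-array Z-score, which can be read as non-binding when negative. The arrays, 3228 of them, came from the Consortium for Functional Glycomics database and were retained only where the protein sequence was available. Z-scores were averaged across arrays of the same protein sequence at different concentrations or buffers and across linkers.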
# [2] = biological target: Fuc(a1-2)[Gal(a1-3)]Gal(b1-4)GlcNAc(b1-2)Man(a1-3)[Fuc(a1-2)[Gal(a1-3)]Gal(b1-4)GlcNAc(b1-2)Man(a1-6)]Man(b1-4)GlcNAc(b1-4)[Fuc(a1-6)]GlcNAc
# In short: as §1
# [3] = biological target: Fuc(a1-2)[Gal(a1-3)]Gal(b1-4)GlcNAc(b1-3)GalNAc
# In short: as §1
# [4] = biological target: Fuc(a1-2)[Gal(a1-3)]Gal(b1-4)GlcNAc(b1-3)[Fuc(a1-2)[Gal(a1-3)]Gal(b1-4)GlcNAc(b1-6)]GalNAc
# In short: as §1
# [5] = biological target: Fuc(a1-2)[Gal(a1-3)]Gal(b1-4)GlcNAc(b1-6)GalNAc
# In short: as §1
# [6] = biological target: Fuc(a1-2)[Gal(a1-3)]Gal(b1-4)[Fuc(a1-3)]Glc
# In short: as §1
# [7] = biological target: Fuc(a1-2)[Gal(a1-3)]Gal(b1-4)[Fuc(a1-3)]GlcNAc
# In short: as §1
# [8] = biological target: Fuc(a1-2)[Gal(a1-3)]Gal(b1-4)[Fuc(a1-3)]GlcNAc(b1-3)GalNAc
# In short: as §1
# [9] = biological target: Fuc(a1-2)[Gal(a1-4)]Gal(b1-4)GlcNAc
# In short: as §1
# [10] = biological target: Fuc(a1-2)[GalNAc(a1-3)]Gal
# In short: as §1
# [11] = biological target: Fuc(a1-2)[GalNAc(a1-3)]Gal(b1-3)GalNAc(a1-3)[Fuc(a1-2)]Gal(b1-4)GlcNAc
# In short: as §1
# [12] = biological target: Fuc(a1-2)[GalNAc(a1-3)]Gal(b1-3)GalNAc(b1-3)Gal(a1-4)Gal(b1-4)Glc
# In short: as §1
# [13] = biological target: Fuc(a1-2)[GalNAc(a1-3)]Gal(b1-3)GlcNAc
# In short: as §1
# [14] = biological target: Fuc(a1-2)[GalNAc(a1-3)]Gal(b1-3)GlcNAc(b1-2)Man(a1-3)[Fuc(a1-2)[GalNAc(a1-3)]Gal(b1-3)GlcNAc(b1-2)Man(a1-6)]Man(b1-4)GlcNAc(b1-4)GlcNAc
# In short: as §1
# [15] = biological target: Fuc(a1-2)[GalNAc(a1-3)]Gal(b1-3)GlcNAc(b1-2)Man(a1-3)[Fuc(a1-2)[GalNAc(a1-3)]Gal(b1-3)GlcNAc(b1-2)Man(a1-6)]Man(b1-4)GlcNAc(b1-4)[Fuc(a1-6)]GlcNAc
# In short: as §1
# [16] = biological target: Fuc(a1-2)[GalNAc(a1-3)]Gal(b1-3)GlcNAc(b1-3)GalNAc
# In short: as §1
# [17] = biological target: Fuc(a1-2)[GalNAc(a1-3)]Gal(b1-3)GlcNAc(b1-6)GalNAc
# In short: as §1
# [18] = biological target: Fuc(a1-2)[GalNAc(a1-3)]Gal(b1-4)Glc
# In short: as §1
# [19] = biological target: Fuc(a1-2)[GalNAc(a1-3)]Gal(b1-4)GlcNAc
# In short: as §1
# [20] = biological target: Fuc(a1-2)[GalNAc(a1-3)]Gal(b1-4)GlcNAc(b1-2)Man
# In short: as §1
# [21] = biological target: Fuc(a1-2)[GalNAc(a1-3)]Gal(b1-4)GlcNAc(b1-2)Man(a1-3)[Fuc(a1-2)[GalNAc(a1-3)]Gal(b1-4)GlcNAc(b1-2)Man(a1-6)]Man(b1-4)GlcNAc(b1-4)GlcNAc
# In short: as §1
# [22] = biological target: Fuc(a1-2)[GalNAc(a1-3)]Gal(b1-4)GlcNAc(b1-2)Man(a1-3)[Fuc(a1-2)[GalNAc(a1-3)]Gal(b1-4)GlcNAc(b1-2)Man(a1-6)]Man(b1-4)GlcNAc(b1-4)[Fuc(a1-6)]GlcNAc
# In short: as §1
# [23] = biological target: Fuc(a1-2)[GalNAc(a1-3)]Gal(b1-4)GlcNAc(b1-3)Gal(b1-4)GlcNAc
# In short: as §1
# [24] = biological target: Fuc(a1-2)[GalNAc(a1-3)]Gal(b1-4)GlcNAc(b1-3)Gal(b1-4)GlcNAc(b1-3)Gal(b1-4)GlcNAc
# In short: as §1
# [25] = biological target: Fuc(a1-2)[GalNAc(a1-3)]Gal(b1-4)GlcNAc(b1-3)GalNAc
# In short: as §1
# [26] = biological target: Fuc(a1-2)[GalNAc(a1-3)]Gal(b1-4)GlcNAc(b1-3)[Fuc(a1-2)[GalNAc(a1-3)]Gal(b1-4)GlcNAc(b1-6)]GalNAc
# In short: as §1
# [27] = biological target: Fuc(a1-2)[GalNAc(a1-3)]Gal(b1-4)GlcNAc(b1-6)GalNAc
# In short: as §1
# [28] = biological target: Fuc(a1-2)[GalNAc(a1-3)]Gal(b1-4)[Fuc(a1-3)]GlcNAc
# In short: as §1
# [29] = biological target: Fuc(a1-2)[GalNAc(a1-3)]Gal(b1-4)[Fuc(a1-3)]GlcNAc(b1-3)GalNAc
# In short: as §1
# [30] = biological target: Fuc(a1-2)[GalNAc(a1-4)]Gal(b1-4)GlcNAc
# In short: as §1
binder,measurement,setting,value
"CC1G-10077 (Coprinopsis cinerea), A8NDT7 (protein) MALNEGVYWIRNSRFTNKVLDLDAANVAKGTSILDFNEHGTFNENHNQLWIVERFQSRDTYLIRSVHSNLVLDLSQGLSANGTPILCWTQHGGTNQQWRIEWVKDDNKTPLYRIVSVATGTAISHNEDDSSAYTVAWSVDDGPKQLWSFDPFVTPLLYRLRVKSTSRVLDLAAASADNGTLALAWEQHTAITKRNQLWWLPYRSGAEEYTIQCLETSTVADLSGGNSGNGTPIYGWQSHGGRNQQWKFEPTSDSGDYYHIKNVEGGSVMDAYMNDSQKRVGGWSNNGGDNQKWLLDPLPSPGPGWVLIQNGGTGKFLCSTPSGDIGTADGPETVYDYSVQWRFIQREYTGVYHVVNRATGAYLRQIGTSMPSIGLAEENDDELKDWWMLETYDNSEIGLASIISRWTGNVLDHYGGVSVQALDNNTENSYRSWAIIPARDWLTSFSLVNGQGGLCLAAQYAREETRLSTTANVNDFHAQWVFRKPSGSSGYTIQNKYNNHYVGGTSARWELVVCCNKYFGIRNTSTQKYLAIEDGQVTFQDQDMTDRKQCWELCSGRATDTSGNDYDLIYMDDDLLEVMIPWVGDKQGDLKHYIEKRATKKPPKDKGGWQLPAAGLIKKPKFNDIRQLLQELIEQWEWDVVNEEREQIQTLVSIDEAEARRLLGRRPHPDIVAAYQRSRSSTLFRIDRQGYFNIAGDRYVNIQGQYGDDSYFHIALPVGVRFGREQIRRFLRDSLDRSTSVTITPTTCKPPSGGPDYNRDPDSDGDNSWIKWTIAVVGTSAIKHSEL",glycan array binding signal (z-score),[1],-0.368
same,glycan array binding signal (z-score),[2],-0.469
same,glycan array binding signal (z-score),[3],-0.404
same,glycan array binding signal (z-score),[4],-0.279
same,glycan array binding signal (z-score),[5],-0.501
same,glycan array binding signal (z-score),[6],-0.43
same,glycan array binding signal (z-score),[7],-0.43
same,glycan array binding signal (z-score),[8],-0.406
same,glycan array binding signal (z-score),[9],-0.099
same,glycan array binding signal (z-score),[10],-0.443
same,glycan array binding signal (z-score),[11],-0.447
same,glycan array binding signal (z-score),[12],-0.459
same,glycan array binding signal (z-score),[13],-0.391
same,glycan array binding signal (z-score),[14],-0.469
same,glycan array binding signal (z-score),[15],-0.413
same,glycan array binding signal (z-score),[16],-0.357
same,glycan array binding signal (z-score),[17],0.3
same,glycan array binding signal (z-score),[18],-0.375
same,glycan array binding signal (z-score),[19],-0.44
same,glycan array binding signal (z-score),[20],-0.446
same,glycan array binding signal (z-score),[21],-0.284
same,glycan array binding signal (z-score),[22],-0.42
same,glycan array binding signal (z-score),[23],-0.185
same,glycan array binding signal (z-score),[24],0.122
same,glycan array binding signal (z-score),[25],-0.448
same,glycan array binding signal (z-score),[26],-0.15
same,glycan array binding signal (z-score),[27],0.669
same,glycan array binding signal (z-score),[28],-0.447
same,glycan array binding signal (z-score),[29],-0.47
same,glycan array binding signal (z-score),[30],0.652
